# Data published in the supplement of paper PMC11417369.
# ± gives the standard deviation of the averaged measurements. The list shows a part of the results.
# System: PfAP2-LT AP2 domain (GST-tagged)
# Assay: gcPBM binding intensity (ln(normalized median fluorescence intensity)); higher = stronger DNA binding
# Outline: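 In this array assay, P. falciparum DNA-binding domains with a GST tag, expressed in E. coli, were applied for 1 h to primer-extended double-stranded 36-bp intergenic genomic probes and negative controls on an Agilent 4 × 180k array. Bound protein was visualised with Alexa488 anti-GST antibody at 488 nm. Binding intensity is the highest Masliner-normalised natural-log median intensity across replicate spots of either probe orientation.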
row,Sequence,gcPBM binding intensity (ln)
1,TTTTAGTTAATTCATGCATGTAAAGTTTTATTTATA [TGCATGCA_site252],8.57 ± 0.42
2,AAAAAAAAAAAAAAAGTACACACTTTTGCGTACATG [CACACA_site3097],8.96 ± 0.33
3,AAAATATACATAAACACACACAAAACGTTTAAGAAA [CACACA_site1071],9.39 ± 0.35
4,ATATTAATTTTTATTACACACTCTCAATTTTTATTT [CACACA_site58],8.96 ± 0.36
5,GTTTAACTGTTTTATACACACAATGTATCCAATAAA [CACACA_site5612],8.94 ± 0.4
6,CTAGCAAATACATACACACACACACGGATACCTATA [CACACA_site7609],9.9 ± 0.3
7,TATATAACTTTATTTTTCTTTACTTATTTTATTTTA [GTGCAC_negctrl_site66],8.57 ± 0.59
8,AAAGAAAAAAAAAAAAGTACATAAATATAAAAAGAA [XGTACX_site6753],8.84 ± 0.59
9,TTTTTTAAAATATATATAATGAATTTTTTTTTTTTT [CACACA_negctrl_site1577],7.88 ± 0.58
10,ATATATATATATATATGTACATATTATTAATAATAT [XGTACX_site6667],9.42 ± 0.071
11,TATTTATATTTATATACACACTATATAACTCAAACA [CACACA_site6611],8.66 ± 0.54
12,AATTGTTCGATATATGCACACAGTTTTGTTATTTTT [CACACA_site1615],9.25 ± 0.34
13,ATACATATTAACAAGGTGCAAATGGATTTCATAAAA [GTGCAC_site9775],8.89 ± 0.51
14,TTTTTTTTTTTGTGAGTGCACGTATGAAGAGAAAAA,8.29 ± 0.35
15,GTATAATATGAACACACACACACACCCAAAAAAAAA [CACACA_site5152],10.3 ± 0.45
16,TTATGGAACCCCATTCGTACATAAATATTTTATATA [XGTACX_site7112],8.49 ± 0.35
17,GATATGATTACCTTATGGTGTTTTTGATGGATAGTT [CACACA_negctrl_site1504],8.89 ± 0.37
18,TTTTTTATTTTAATGTATTATTTTTATGTAATATAT [GTGCAC_negctrl_site391],8.54 ± 0.59
19,TATAATAATAATGATAGTACGTATGAGTTCAAAAAA [XGTACX_site608],8.88 ± 0.47
20,TATATACAAATATGCTGTACAAAAAAAAAAAAAAAA [XGTACX_site4732],8.59 ± 0.47
21,CGGTATTTTTTAATTTGTACGCATATACAATAATTA [XGTACX_site8603],8.7 ± 0.38
22,TTTTATTATTTATATACACACTTGCTGAAATGTTAT [CACACA_site5919],8.93 ± 0.47
23,TTCTTTATTTTTTCTACACACATTATGTATTCAAAG [CACACA_site3527],9.09 ± 0.54

row,Sequence,gcPBM binding intensity (ln)
1,TGAAAGAACCTGATTACACACATAAGTTATAAATAT [CACACA_site6165],9.03 ± 0.4
2,TGAAAGAATGTTAATAGTACACACAATTATTATATA [XGTACX_site7936],8.89 ± 0.47
3,ATTGATATTGTATAATGTACAGGAAAAAAAAAAAAA [XGTACX_site526],8.64 ± 0.51
4,TAAGAACTATTCAGTAGTACCTATATGGATTACTAA [XGTACX_site4278],8.73 ± 0.39
5,AAATAAAGATATATATATATATATATATATAATTTT [CACACA_negctrl_site30],9.46 ± 0.36
6,CATAAATCAGCCATAACACACATACCTATATACATA [CACACA_site6324],9.21 ± 0.26
7,AAAATGTGCATATTTGCACACTTCAATATATATATA [CACACA_site1791],9.56 ± 0.15
8,AATATAAAAAGGCACACACACAAAAAAAAAAAAAAA [CACACA_site896],9.46 ± 0.38
9,AAATATTTTGCATACACATGCAAATATTTTTTACAT [TGCATGCA_site554],8.74 ± 0.45
10,AATATATATTTGTGTACACATTATATATATATATAT [CACACA_site6103],9.13 ± 0.33
11,AATCTCAGAATATACTGTACTTTAAGAAAAAAAAAA [XGTACX_site110],8.34 ± 0.42
12,AAAATTTAAATAGGAAGTACGTTCACTAAGAAAATA [XGTACX_site6546],8.79 ± 0.45
13,ATAATTTAAAAACATTGTACATTAATATATATGTAT [XGTACX_site8970],8.65 ± 0.39
14,ATAATAACTGATAAATGTACATATAAATTTTATGAT [XGTACX_site195],8.87 ± 0.42
15,TTTTATATTTTAAGAGTGCATTTTATATCTTTTTCT,8.6 ± 0.54
16,GAAAATATTAAATGAAGTACAATATTTATGTTACTT [XGTACX_site8737],8.62 ± 0.48
17,ATACTCACGAAACACACACACAATATATATATATAT [CACACA_site4136],9.84 ± 0.23
18,TTTATATTTCTTCATCGTACACATAAAAAAAAAAAA [XGTACX_site3244],8.09 ± 0.33
19,ATTTATTTTCTGTGTACACATATGTTGGGTATTTTA [CACACA_site5902],9.23 ± 0.36
20,AGAAAAAAAAAAAGTACACACATATAACATATAGAT [CACACA_site7410],9.19 ± 0.46
21,GTATATATCCCAAAATGTACATAATTTATTATTTAT [XGTACX_site2842],8.69 ± 0.49
22,ATAGGTAAAAAGTATACACACGTTGACACATTCTTT [CACACA_site4794],9.04 ± 0.38
